Laboratory results reported in EPA's CvTdb concentration-time database.
Further values from the same series stand in other lists.

Legend:
Rat [1] = assay: concentration in liver after dosing; details: 288 h; dosed: 3,3',4,4',5-pentachlorobiphenyl; 1000 mg/kg; oral; Female; Harlan Sprague Dawley
Rat [2] = assay: concentration in liver after dosing; details: 1.5 h; dosed: 3,3',4,4',5-pentachlorobiphenyl; 1000 mg/kg; oral; Female; F344
Rat [3] = assay: concentration in plasma after dosing; details: 8184 h; dosed: 3,3',4,4',5-pentachlorobiphenyl; 1000 mg/kg; oral; Male; Harlan Sprague Dawley
Rat [4] = assay: concentration in plasma after dosing; details: 8760 h; dosed: 3,3',4,4',5-pentachlorobiphenyl; 1000 mg/kg; oral; Male; Harlan Sprague Dawley
Rat [5] = assay: concentration in liver after dosing; details: 8 h; dosed: 3,3',4,4',5-pentachlorobiphenyl; 1000 mg/kg; oral; Female; F344
Rat [6] = assay: concentration in liver after dosing; details: 6000 h; dosed: 3,3',4,4',5-pentachlorobiphenyl; 1000 mg/kg; oral; Female; Harlan Sprague Dawley
Rat [7] = assay: concentration in liver after dosing; details: 16 h; dosed: 3,3',4,4',5-pentachlorobiphenyl; 1000 mg/kg; oral; Female; F344
Rat [8] = assay: concentration in liver after dosing; details: 8 h; dosed: 3,3',4,4',5-pentachlorobiphenyl; 1000 mg/kg; oral; Female; F344; remark: listed apart in the source
Rat [9] = assay: concentration in liver after dosing; details: 7416 h; dosed: 3,3',4,4',5-pentachlorobiphenyl; 1000 mg/kg; oral; Male; F344
Rat [10] = assay: concentration in plasma after dosing; details: 5 min; dosed: alpha/beta-Thujone mixture; 50 mg/kg; oral; Male; F344
Rat [11] = assay: concentration in brain after dosing; details: 5 min; dosed: 76231-76-0; 3.0 mg/kg; iv; Male; F344
Rat [12] = assay: concentration in plasma after dosing; details: 8 h; dosed: 76231-76-0; 3.0 mg/kg; iv; Male; F344
Rat [13] = assay: concentration in brain after dosing; details: 6 h; dosed: alpha/beta-Thujone mixture; 50 mg/kg; oral; Female; F344
Rat [14] = assay: concentration in brain after dosing; details: 5 min; dosed: alpha/beta-Thujone mixture; 50 mg/kg; oral; Male; F344
Rat [15] = assay: concentration in plasma after dosing; details: 3 h; dosed: alpha/beta-Thujone mixture; 50 mg/kg; oral; Male; F344
Rat [16] = assay: concentration in brain after dosing; details: 3 h; dosed: alpha/beta-Thujone mixture; 25 mg/kg; oral; Female; F344
Rat [17] = assay: concentration in brain after dosing; details: 5 min; dosed: 76231-76-0; 3.0 mg/kg; iv; Male; F344; remark: listed apart in the source
Rat [18] = assay: concentration in plasma after dosing; details: 0.5 h; dosed: alpha/beta-Thujone mixture; 25 mg/kg; oral; Female; F344
Rat [19] = assay: concentration in plasma after dosing; details: 10 min; dosed: alpha/beta-Thujone mixture; 50 mg/kg; oral; Male; F344
Rat [20] = assay: concentration in brain after dosing; details: 1.5 h; dosed: alpha/beta-Thujone mixture; 50 mg/kg; oral; Male; F344
Rat [21] = assay: concentration in plasma after dosing; details: 12 h; dosed: 76231-76-0; 3.0 mg/kg; iv; Male; F344
Rat [22] = assay: concentration in plasma after dosing; details: 3 h; dosed: 76231-76-0; 3.0 mg/kg; iv; Female; F344
Rat [23] = assay: concentration in brain after dosing; details: 5 min; dosed: alpha/beta-Thujone mixture; 25 mg/kg; oral; Male; F344
Rat [24] = assay: concentration in brain after dosing; details: 6 h; dosed: alpha/beta-Thujone mixture; 25 mg/kg; oral; Male; F344
Rat [25] = assay: concentration in brain after dosing; details: 1 h; dosed: 76231-76-0; 3.0 mg/kg; iv; Female; F344
Rat [26] = assay: concentration in plasma after dosing; details: 1 h; dosed: 76231-76-0; 3.0 mg/kg; iv; Female; F344
Rat [27] = assay: concentration in plasma after dosing; details: 1.5 h; dosed: alpha/beta-Thujone mixture; 25 mg/kg; oral; Male; F344
Rat [28] = assay: concentration in plasma after dosing; details: 6 h; dosed: alpha/beta-Thujone mixture; 50 mg/kg; oral; Female; F344
Rat [29] = assay: concentration in plasma after dosing; details: 6 h; dosed: alpha/beta-Thujone mixture; 50 mg/kg; oral; Male; F344
Rat [30] = assay: concentration in plasma after dosing; details: 3 h; dosed: alpha/beta-Thujone mixture; 25 mg/kg; oral; Female; F344
Rat [31] = assay: concentration in plasma after dosing; details: 10 min; dosed: 76231-76-0; 3.0 mg/kg; iv; Female; F344
Rat [32] = assay: concentration in brain after dosing; details: 1 h; dosed: 76231-76-0; 3.0 mg/kg; iv; Male; F344
Rat [33] = assay: concentration in brain after dosing; details: 5 min; dosed: alpha/beta-Thujone mixture; 50 mg/kg; oral; Female; F344
Rat [34] = assay: concentration in plasma after dosing; details: 5 min; dosed: alpha/beta-Thujone mixture; 25 mg/kg; oral; Female; F344
Rat [35] = assay: concentration in plasma after dosing; details: 0.75 h; dosed: 76231-76-0; 3.0 mg/kg; iv; Male; F344
Rat [36] = assay: concentration in plasma after dosing; details: 6 h; dosed: alpha/beta-Thujone mixture; 25 mg/kg; oral; Female; F344
Rat [37] = assay: concentration in brain after dosing; details: 12 h; dosed: alpha/beta-Thujone mixture; 25 mg/kg; oral; Female; F344
Rat [38] = assay: concentration in brain after dosing; details: 3 h; dosed: alpha/beta-Thujone mixture; 25 mg/kg; oral; Female; F344; remark: listed apart in the source
Rat [39] = assay: concentration in brain after dosing; details: 1.5 h; dosed: alpha/beta-Thujone mixture; 25 mg/kg; oral; Male; F344
Rat [40] = assay: concentration in brain after dosing; details: 12 h; dosed: alpha/beta-Thujone mixture; 50 mg/kg; oral; Female; F344
Rat [41] = assay: concentration in plasma after dosing; details: 5 min; dosed: alpha/beta-Thujone mixture; 50 mg/kg; oral; Male; F344; remark: listed apart in the source
Rat [42] = assay: concentration in plasma after dosing; details: 10 min; dosed: 76231-76-0; 3.0 mg/kg; iv; Female; F344; remark: listed apart in the source

Compound: Clc1ccc(-c2cc(Cl)c(Cl)c(Cl)c2)cc1Cl [3,3',4,4',5-pentachlorobiphenyl]
- concentration in liver (Rat [1]): 8440 pg/g
- concentration in liver (Rat [2]): 3280 pg/g
- concentration in plasma (Rat [3]): 34.9 pg/mL
- concentration in plasma (Rat [4]): 15.8 pg/mL
- concentration in liver (Rat [5]): 15500 pg/g
- concentration in liver (Rat [6]): 858 pg/g
- concentration in liver (Rat [7]): 12100 pg/g
- concentration in liver (Rat [8]): 12000 pg/g
- concentration in liver (Rat [9]): 975 pg/g

Compound: CC(C)[C@]12CC(=O)[C@H](C)[C@H]1C2 [alpha-Thujone]
- concentration in plasma (Rat [10]): 474 ng/mL
- concentration in brain (Rat [11]): 2370 ng/g
- concentration in plasma (Rat [12]): 14.7 ng/mL
- concentration in brain (Rat [13]): 662 ng/g
- concentration in brain (Rat [14]): 668 ng/g
- concentration in plasma (Rat [15]): 160 ng/mL
- concentration in brain (Rat [16]): 172 ng/g
- concentration in brain (Rat [17]): 3220 ng/g
- concentration in plasma (Rat [18]): 270 ng/mL
- concentration in plasma (Rat [19]): 727 ng/mL
- concentration in brain (Rat [20]): 974 ng/g
- concentration in plasma (Rat [21]): 5.32 ng/mL
- concentration in plasma (Rat [22]): 11.9 ng/mL
- concentration in brain (Rat [23]): 287 ng/g
- concentration in brain (Rat [24]): 76.4 ng/g
- concentration in brain (Rat [25]): 100 ng/g
- concentration in plasma (Rat [26]): 20.9 ng/mL
- concentration in plasma (Rat [27]): 133 ng/mL
- concentration in plasma (Rat [28]): 171 ng/mL
- concentration in plasma (Rat [29]): 92.1 ng/mL
- concentration in plasma (Rat [30]): 186 ng/mL
- concentration in plasma (Rat [31]): 357 ng/mL
- concentration in brain (Rat [32]): 108 ng/g
- concentration in brain (Rat [33]): 471 ng/g
- concentration in plasma (Rat [34]): 552 ng/mL
- concentration in plasma (Rat [35]): 91.1 ng/mL
- concentration in plasma (Rat [36]): 43 ng/mL
- concentration in brain (Rat [37]): 19.7 ng/g
- concentration in brain (Rat [38]): 334 ng/g
- concentration in brain (Rat [39]): 191 ng/g
- concentration in brain (Rat [40]): 37.2 ng/g
- concentration in plasma (Rat [41]): 475 ng/mL
- concentration in plasma (Rat [42]): 303 ng/mL
